# PMC4336329 (PLoS ONE, 2015)
# In all, about 310,000 compounds went through this assay and about 14,000 (4.5%) showed an effect of 50% or more. The effect is printed as a negative number. The list shows a part of the results.
# Biological target: human ether-à-go-go-related gene (hERG) potassium channel (human, UniProt Q12809)
# Test: primary screen, population patch clamp on CHO cells stably expressing hERG
# 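Note: peak tail current of the secondary pulse compared with the same well before compound.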
# human ether-à-go-go-related gene (hERG) potassium channel, sequence (Q12809 whole entry, looked up): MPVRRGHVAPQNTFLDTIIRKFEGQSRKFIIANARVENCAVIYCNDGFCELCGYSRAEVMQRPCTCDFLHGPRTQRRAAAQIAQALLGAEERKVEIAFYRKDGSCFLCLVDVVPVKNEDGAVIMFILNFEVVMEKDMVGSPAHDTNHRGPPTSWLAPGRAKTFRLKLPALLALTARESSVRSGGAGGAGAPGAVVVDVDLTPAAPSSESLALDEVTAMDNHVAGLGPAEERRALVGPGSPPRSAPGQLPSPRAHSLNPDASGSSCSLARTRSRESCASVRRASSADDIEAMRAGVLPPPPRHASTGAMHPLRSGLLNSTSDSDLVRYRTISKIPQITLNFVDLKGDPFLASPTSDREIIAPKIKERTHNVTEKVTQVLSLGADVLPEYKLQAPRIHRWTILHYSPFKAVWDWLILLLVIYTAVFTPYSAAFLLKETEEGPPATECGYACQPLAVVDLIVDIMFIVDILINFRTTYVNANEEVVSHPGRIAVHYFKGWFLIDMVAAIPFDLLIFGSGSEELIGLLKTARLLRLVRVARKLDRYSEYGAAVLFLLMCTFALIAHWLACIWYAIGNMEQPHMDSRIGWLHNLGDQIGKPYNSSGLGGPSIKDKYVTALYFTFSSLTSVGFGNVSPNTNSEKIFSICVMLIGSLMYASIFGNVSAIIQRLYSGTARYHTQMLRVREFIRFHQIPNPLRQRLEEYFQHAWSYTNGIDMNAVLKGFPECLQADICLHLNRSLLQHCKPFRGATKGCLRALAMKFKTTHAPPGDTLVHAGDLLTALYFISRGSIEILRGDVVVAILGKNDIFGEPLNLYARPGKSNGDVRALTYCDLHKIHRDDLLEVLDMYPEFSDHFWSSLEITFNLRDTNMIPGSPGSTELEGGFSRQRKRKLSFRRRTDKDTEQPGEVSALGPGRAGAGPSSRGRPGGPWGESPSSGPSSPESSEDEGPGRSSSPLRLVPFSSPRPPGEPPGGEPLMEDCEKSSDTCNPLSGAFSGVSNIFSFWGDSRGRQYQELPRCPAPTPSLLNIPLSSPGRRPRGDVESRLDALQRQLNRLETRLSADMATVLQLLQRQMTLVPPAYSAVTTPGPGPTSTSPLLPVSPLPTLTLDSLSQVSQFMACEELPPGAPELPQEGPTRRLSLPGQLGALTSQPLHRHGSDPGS
row,Structure (SMILES),"hERG current change (%, negative = inhibition) at 10uM"
1,COc1ccc(Cc2nc3ccc(S(=O)(=O)N4CCOCC4)cc3[nH]2)cc1,-6.24%
2,CCCCCc1cc(=O)oc2c(C(CCN3CCCC3)c3cc(OC)c(OC)c(OC)c3)c(OC)cc(OC)c12 (centres unmarked),-65.6%
3,O=[N+]([O-])c1ccc(N(CC(O)CN2CCCCC2)S(=O)(=O)c2ccccc2)cc1 (centres unmarked),-74%
4,COC(=O)c1cccc(Cn2c(Cl)c(/C=N/NC(=O)c3ccccc3Cl)sc2=O)c1,-9.46%
5,CCOC(=O)c1c(C)nc2ccc(Cl)cc2c1-c1ccccc1,6.84%
6,O=C(COc1ccccc1[N+](=O)[O-])Nc1ccccc1N1CCCC1,-29.1%
7,CCCOc1ccc(/C=c2\sc3ncnn3c2=O)cc1,6.61%
8,CCn1cc(C(=O)NCCC(=O)OC)c(=O)c2cc3c(cc21)OCO3,18.9%
9,Cc1c(N=C(N)/N=C(\N)Nc2ccc(Br)cc2)c(=O)n(-c2ccccc2)n1C,7.51%
10,CC1C(=O)N2CCCc3cc(NC(=O)CC(C)(C)C)cc1c32 (centres unmarked),9.89%
11,COc1ccc(NC(=O)C2CCCN(S(=O)(=O)c3ccc(-n4cnnn4)cc3)C2)cc1 (centres unmarked),14.5%
12,COc1cccc(NC(=O)CN(C)C(=O)CSCc2nc3scc(-c4cccs4)c3c(=O)[nH]2)c1,-16.2%
13,Cc1c(Cl)cccc1NC(=S)N(Cc1ccco1)C(C)c1ccccn1 (centres unmarked),-11%
14,O=C(CC1CCCC1)Nc1cccc(Br)c1,-3.4%
15,COc1ccc(C)cc1NC1=C(Cl)C(=O)N(C2CCCCC2)C1=O,-15.7%
16,Cn1cncc1C#Cc1ccc2cc(CCO)oc(=O)c2c1,-18.1%
17,COc1ccc(C2/C=C\CN(C(=O)NC34CC5CC(CC(C5)C3)C4)CC(=O)N2Cc2ccc(F)cc2)cc1 (centres unmarked),-0.098%
18,CCOC(=O)C1(CCOc2ccccc2)CCN(Cc2cnc(C)[nH]2)CC1,-48.3%
19,CC(Sc1nnnn1C)C(=O)Nc1ccc(N2CCOCC2)cc1 (centres unmarked),13.1%
20,COc1ccc(C(C)=O)cc1CSc1nnc(Nc2ccccc2C)s1,-17.9%
21,COc1cccc(NC(=O)Cc2nnc(SCC(=O)NC3=NCCS3)n2C)c1,25.7%
22,COc1cnn(-c2cc(Oc3ccc(C)cc3)ncn2)c(=O)c1Cl,2.74%

row,Structure (SMILES),"hERG current change (%, negative = inhibition) at 10uM"
1,CNc1nc2sc3c(c2c(=O)n1C)CC(C)(C)SC3,-16%
2,CC1CCC(NC(=O)c2ccc(NS(=O)(=O)c3ccc4[nH]c(=O)[nH]c4c3)cc2)CC1 (centres unmarked),2.37%
3,COC(=O)c1cc2c(cc1NC(=O)CSCCc1ccccn1)OCO2,7.82%
4,CC1CCN(CC(=O)Nc2cc(C(F)(F)F)ccc2Cl)CC1,20.4%
5,CN1CCN(C(=O)c2ccc(C3SCC(=O)N3Cc3ccco3)cc2)CC1 (centres unmarked),6.13%
6,Cn1c(/C=C/c2ccccc2)nc2ccccc21,16.8%
7,COc1ccc2ccccc2c1C(=O)/C=C\c1ccoc1,-31.6%
8,Cc1c(C(=O)N(C)Cc2ccccc2)oc2ccc(S(=O)(=O)N3CCCC3)cc12,-11.8%
9,Cc1nc2nc(NC(=O)c3ccco3)nn2c(C)c1Cl,-1.18%
10,CCn1c(SCC(=O)N=Nc2c(O)[nH]c3ccccc23)nc2ccccc21,-11.9%
11,COc1ccccc1CNC(=O)CN1C(=O)c2ccccc2S1(=O)=O,12.7%
12,Cc1ccc(C(=O)CCC(=O)Nc2ncccc2C)cc1,6.86%
13,Cc1ccc(C)c(Cn2c(=O)n(CCC(=O)NCc3ccco3)c(=O)c3sccc32)c1,7.18%
14,CCc1sc(C(=O)Nc2cc(S(=O)(=O)N3CCOCC3)ccc2OC)cc1C,7.24%
15,S=C(Nc1ccc(Nc2ccccc2)cc1)NC1CCCCCC1,4.19%
16,COc1ccc(OC)c2c(=O)cc(C(=O)O)[nH]c12,13.3%
17,CCc1cc2c(=O)[nH]c(-c3ccccn3)nc2s1,-4.89%
18,COc1ccc(Br)c(C(=O)Nn2c(C)nc3ccccc3c2=O)c1,-7.27%
19,COc1ccc(S(=O)(=O)Nc2ccccc2)cc1OC,-14.9%
20,Cc1ccc(C(=O)NCC(=O)OCc2c(F)cccc2Cl)cc1,-0.578%
21,COc1cc2c(cc1OC)C(C(=O)N(C)C1CCCCC1)C1CCCCN1C2=O (centres unmarked),10.2%
22,O=C(N/N=C/c1ccc(O)c(O)c1)C1CC1,10.3%
